Measured values reported in patent US20180155450A1 (Sanofi, published 2018).

Assays:
recombinant human IL4 = biological target: T1, recombinant human IL4 (human, UniProt P05112 25-153); test: SPR, Biacore 3000; CODV-Ig captured by anti-human Fc, antigen as analyte
T1 construct: also called Antigen1
T1 sequence (looked up): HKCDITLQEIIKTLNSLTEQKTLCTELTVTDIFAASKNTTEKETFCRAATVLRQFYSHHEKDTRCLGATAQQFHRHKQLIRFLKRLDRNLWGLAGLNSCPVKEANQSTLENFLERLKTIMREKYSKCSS

recombinant human IL13 = biological target: T2, recombinant human IL13 (human, UniProt P35225 part only, limits assumed); test: as above
recombinant human IL13, sequence (P35225 35-146 limits assumed): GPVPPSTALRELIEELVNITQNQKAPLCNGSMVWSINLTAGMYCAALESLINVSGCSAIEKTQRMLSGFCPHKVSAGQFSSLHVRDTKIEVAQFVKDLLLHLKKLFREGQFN
T2 construct: also called Antigen2

Binder | Kd (recombinant human IL4) [pM] | Kd (recombinant human IL13) [pM]
CODV-Ig Batch ID 102 (IL4 × IL13 on LC; L1=0, L2=0, L3=2, L4=4) (bispecific antibody) heavy: EVQLKESGPGLVAPGGSLSITCTVSGFSLTDSSINWVRQPPGKGLEWLGMIWGDGRIDYADALKSRLSISKDSSKSQVFLEMTSLRTDDTATYYCARDGYFPYAMDFWGQGTSVTVSSGGQVQLQQSGPELVKPGASVKISCKASGYSFTSYWIHWIKQRPGQGLEWIGMIDPSDGETRLNQRFQGRATLTVDESTSTAYMQLRSPTSEDSAVYYCTRLKEYGNYDSFYFDVWGAGTLVTVSSGGGG[letters of human IgG1 constant region not shown] light: DIQMTQSPASLSVSVGDTITLTCHASQNIDVWLSWFQQKPGNIPKLLIYKASNLHTGVPSRFSGSGSGTGFTLTISSLQPEDIATYYCQQAHSYPFTFGGGTKLEIKDIVLTQSPASLAVSLGQRATISCRASESVDSYGQSYMHWYQQKAGQPPKLLIYLASNLESGVPARFSGSGSRTDFTLTIDPVQAEDAATYYCQQNAEDSRTFGGGTKLEIKRTVAAPSVFIFPPSDEQLKSGTASVVCLLNNFYPREAKVQWKVDNALQSGNSQESVTEQDSKDSTYSLSSTLTLSKADYEKHKVYACEVTHQGLSSPVTKSFNRGEC | 35 | 
CODV-Ig Batch ID 103 (IL4 × IL13 on LC; L1=0, L2=1, L3=2, L4=4) (bispecific antibody) chain 1: EVQLKESGPGLVAPGGSLSITCTVSGFSLTDSSINWVRQPPGKGLEWLGMIWGDGRIDYADALKSRLSISKDSSKSQVFLEMTSLRTDDTATYYCARDGYFPYAMDFWGQGTSVTVSSGGQVQLQQSGPELVKPGASVKISCKASGYSFTSYWIHWIKQRPGQGLEWIGMIDPSDGETRLNQRFQGRATLTVDESTSTAYMQLRSPTSEDSAVYYCTRLKEYGNYDSFYFDVWGAGTLVTVSSGGGG[letters of human IgG1 constant region not shown] chain 2: DIQMTQSPASLSVSVGDTITLTCHASQNIDVWLSWFQQKPGNIPKLLIYKASNLHTGVPSRFSGSGSGTGFTLTISSLQPEDIATYYCQQAHSYPFTFGGGTKLEIKDIVLTQSPASLAVSLGQRATISCRASESVDSYGQSYMHWYQQKAGQPPKLLIYLASNLESGVPARFSGSGSRTDFTLTIDPVQAEDAATYYCQQNAEDSRTFGGGTKLEIKGRTVAAPSVFIFPPSDEQLKSGTASVVCLLNNFYPREAKVQWKVDNALQSGNSQESVTEQDSKDSTYSLSSTLTLSKADYEKHKVYACEVTHQGLSSPVTKSFNRGEC | 4 | 124
CODV-Ig Batch ID 104 (IL4 × IL13 on LC; L1=0, L2=2, L3=2, L4=4) (bispecific antibody) chain 1: EVQLKESGPGLVAPGGSLSITCTVSGFSLTDSSINWVRQPPGKGLEWLGMIWGDGRIDYADALKSRLSISKDSSKSQVFLEMTSLRTDDTATYYCARDGYFPYAMDFWGQGTSVTVSSGGQVQLQQSGPELVKPGASVKISCKASGYSFTSYWIHWIKQRPGQGLEWIGMIDPSDGETRLNQRFQGRATLTVDESTSTAYMQLRSPTSEDSAVYYCTRLKEYGNYDSFYFDVWGAGTLVTVSSGGGG[letters of human IgG1 constant region not shown] chain 2: DIQMTQSPASLSVSVGDTITLTCHASQNIDVWLSWFQQKPGNIPKLLIYKASNLHTGVPSRFSGSGSGTGFTLTISSLQPEDIATYYCQQAHSYPFTFGGGTKLEIKDIVLTQSPASLAVSLGQRATISCRASESVDSYGQSYMHWYQQKAGQPPKLLIYLASNLESGVPARFSGSGSRTDFTLTIDPVQAEDAATYYCQQNAEDSRTFGGGTKLEIKGGRTVAAPSVFIFPPSDEQLKSGTASVVCLLNNFYPREAKVQWKVDNALQSGNSQESVTEQDSKDSTYSLSSTLTLSKADYEKHKVYACEVTHQGLSSPVTKSFNRGEC | 3 | 137
CODV-Ig Batch ID 105 (IL4 × IL13 on LC; L1=0, L2=2, L3=4, L4=4) (bispecific antibody) chain 1: EVQLKESGPGLVAPGGSLSITCTVSGFSLTDSSINWVRQPPGKGLEWLGMIWGDGRIDYADALKSRLSISKDSSKSQVFLEMTSLRTDDTATYYCARDGYFPYAMDFWGQGTSVTVSSGGGGQVQLQQSGPELVKPGASVKISCKASGYSFTSYWIHWIKQRPGQGLEWIGMIDPSDGETRLNQRFQGRATLTVDESTSTAYMQLRSPTSEDSAVYYCTRLKEYGNYDSFYFDVWGAGTLVTVSSGGGG[letters of human IgG1 constant region not shown] chain 2: DIQMTQSPASLSVSVGDTITLTCHASQNIDVWLSWFQQKPGNIPKLLIYKASNLHTGVPSRFSGSGSGTGFTLTISSLQPEDIATYYCQQAHSYPFTFGGGTKLEIKDIVLTQSPASLAVSLGQRATISCRASESVDSYGQSYMHWYQQKAGQPPKLLIYLASNLESGVPARFSGSGSRTDFTLTIDPVQAEDAATYYCQQNAEDSRTFGGGTKLEIKGGRTVAAPSVFIFPPSDEQLKSGTASVVCLLNNFYPREAKVQWKVDNALQSGNSQESVTEQDSKDSTYSLSSTLTLSKADYEKHKVYACEVTHQGLSSPVTKSFNRGEC | 6 | 94
CODV-Ig Batch ID 113 (IL4 × IL13 on LC; L1=1, L2=2, L3=0, L4=0) (bispecific antibody) heavy: EVQLKESGPGLVAPGGSLSITCTVSGFSLTDSSINWVRQPPGKGLEWLGMIWGDGRIDYADALKSRLSISKDSSKSQVFLEMTSLRTDDTATYYCARDGYFPYAMDFWGQGTSVTVSSQVQLQQSGPELVKPGASVKISCKASGYSFTSYWIHWIKQRPGQGLEWIGMIDPSDGETRLNQRFQGRATLTVDESTSTAYMQLRSPTSEDSAVYYCTRLKEYGNYDSFYFDVWGAGTLVTVSS[letters of human IgG1 constant region not shown] light: DIQMTQSPASLSVSVGDTITLTCHASQNIDVWLSWFQQKPGNIPKLLIYKASNLHTGVPSRFSGSGSGTGFTLTISSLQPEDIATYYCQQAHSYPFTFGGGTKLEIKGDIVLTQSPASLAVSLGQRATISCRASESVDSYGQSYMHWYQQKAGQPPKLLIYLASNLESGVPARFSGSGSRTDFTLTIDPVQAEDAATYYCQQNAEDSRTFGGGTKLEIKGGRTVAAPSVFIFPPSDEQLKSGTASVVCLLNNFYPREAKVQWKVDNALQSGNSQESVTEQDSKDSTYSLSSTLTLSKADYEKHKVYACEVTHQGLSSPVTKSFNRGEC | 6 | 
CODV-Ig Batch ID 122 (IL4 × IL13 on LC; L1=1, L2=2, L3=2, L4=7) (bispecific antibody, human IgG1, kappa, also called LC4:HC3) heavy: EVQLKESGPGLVAPGGSLSITCTVSGFSLTDSSINWVRQPPGKGLEWLGMIWGDGRIDYADALKSRLSISKDSSKSQVFLEMTSLRTDDTATYYCARDGYFPYAMDFWGQGTSVTVSSGGQVQLQQSGPELVKPGASVKISCKASGYSFTSYWIHWIKQRPGQGLEWIGMIDPSDGETRLNQRFQGRATLTVDESTSTAYMQLRSPTSEDSAVYYCTRLKEYGNYDSFYFDVWGAGTLVTVSSGGGGGGG[letters of human IgG1 constant region not shown] light: DIQMTQSPASLSVSVGDTITLTCHASQNIDVWLSWFQQKPGNIPKLLIYKASNLHTGVPSRFSGSGSGTGFTLTISSLQPEDIATYYCQQAHSYPFTFGGGTKLEIKGDIVLTQSPASLAVSLGQRATISCRASESVDSYGQSYMHWYQQKAGQPPKLLIYLASNLESGVPARFSGSGSRTDFTLTIDPVQAEDAATYYCQQNAEDSRTFGGGTKLEIKGGRTVAAPSVFIFPPSDEQLKSGTASVVCLLNNFYPREAKVQWKVDNALQSGNSQESVTEQDSKDSTYSLSSTLTLSKADYEKHKVYACEVTHQGLSSPVTKSFNRGEC | 1 | 
CODV-Ig Batch ID 124 (IL4 × IL13 on LC; L1=1, L2=2, L3=4, L4=7) (bispecific antibody, human IgG1, kappa, also called LC4:HC5) heavy: EVQLKESGPGLVAPGGSLSITCTVSGFSLTDSSINWVRQPPGKGLEWLGMIWGDGRIDYADALKSRLSISKDSSKSQVFLEMTSLRTDDTATYYCARDGYFPYAMDFWGQGTSVTVSSGGGGQVQLQQSGPELVKPGASVKISCKASGYSFTSYWIHWIKQRPGQGLEWIGMIDPSDGETRLNQRFQGRATLTVDESTSTAYMQLRSPTSEDSAVYYCTRLKEYGNYDSFYFDVWGAGTLVTVSSGGGGGGG[letters of human IgG1 constant region not shown] light: DIQMTQSPASLSVSVGDTITLTCHASQNIDVWLSWFQQKPGNIPKLLIYKASNLHTGVPSRFSGSGSGTGFTLTISSLQPEDIATYYCQQAHSYPFTFGGGTKLEIKGDIVLTQSPASLAVSLGQRATISCRASESVDSYGQSYMHWYQQKAGQPPKLLIYLASNLESGVPARFSGSGSRTDFTLTIDPVQAEDAATYYCQQNAEDSRTFGGGTKLEIKGGRTVAAPSVFIFPPSDEQLKSGTASVVCLLNNFYPREAKVQWKVDNALQSGNSQESVTEQDSKDSTYSLSSTLTLSKADYEKHKVYACEVTHQGLSSPVTKSFNRGEC | 6 | 
CODV-Ig Batch ID 125 (IL4 × IL13 on LC; L1=1, L2=2, L3=6, L4=4) (bispecific antibody, human IgG1, kappa, also called LC4:HC2) heavy: EVQLKESGPGLVAPGGSLSITCTVSGFSLTDSSINWVRQPPGKGLEWLGMIWGDGRIDYADALKSRLSISKDSSKSQVFLEMTSLRTDDTATYYCARDGYFPYAMDFWGQGTSVTVSSGGGGGGQVQLQQSGPELVKPGASVKISCKASGYSFTSYWIHWIKQRPGQGLEWIGMIDPSDGETRLNQRFQGRATLTVDESTSTAYMQLRSPTSEDSAVYYCTRLKEYGNYDSFYFDVWGAGTLVTVSSGGGG[letters of human IgG1 constant region not shown] light: DIQMTQSPASLSVSVGDTITLTCHASQNIDVWLSWFQQKPGNIPKLLIYKASNLHTGVPSRFSGSGSGTGFTLTISSLQPEDIATYYCQQAHSYPFTFGGGTKLEIKGDIVLTQSPASLAVSLGQRATISCRASESVDSYGQSYMHWYQQKAGQPPKLLIYLASNLESGVPARFSGSGSRTDFTLTIDPVQAEDAATYYCQQNAEDSRTFGGGTKLEIKGGRTVAAPSVFIFPPSDEQLKSGTASVVCLLNNFYPREAKVQWKVDNALQSGNSQESVTEQDSKDSTYSLSSTLTLSKADYEKHKVYACEVTHQGLSSPVTKSFNRGEC | 8 | 
CODV-Ig Batch ID 126 (IL4 × IL13 on LC; L1=1, L2=2, L3=6, L4=7) (bispecific antibody, human IgG1, kappa, also called LC4:HC1) heavy: EVQLKESGPGLVAPGGSLSITCTVSGFSLTDSSINWVRQPPGKGLEWLGMIWGDGRIDYADALKSRLSISKDSSKSQVFLEMTSLRTDDTATYYCARDGYFPYAMDFWGQGTSVTVSSGGGGGGQVQLQQSGPELVKPGASVKISCKASGYSFTSYWIHWIKQRPGQGLEWIGMIDPSDGETRLNQRFQGRATLTVDESTSTAYMQLRSPTSEDSAVYYCTRLKEYGNYDSFYFDVWGAGTLVTVSSGGGGGGG[letters of human IgG1 constant region not shown] light: DIQMTQSPASLSVSVGDTITLTCHASQNIDVWLSWFQQKPGNIPKLLIYKASNLHTGVPSRFSGSGSGTGFTLTISSLQPEDIATYYCQQAHSYPFTFGGGTKLEIKGDIVLTQSPASLAVSLGQRATISCRASESVDSYGQSYMHWYQQKAGQPPKLLIYLASNLESGVPARFSGSGSRTDFTLTIDPVQAEDAATYYCQQNAEDSRTFGGGTKLEIKGGRTVAAPSVFIFPPSDEQLKSGTASVVCLLNNFYPREAKVQWKVDNALQSGNSQESVTEQDSKDSTYSLSSTLTLSKADYEKHKVYACEVTHQGLSSPVTKSFNRGEC | 9 | 
